# Results from a collection of fitness landscapes (doi:10.1126/science.1257360).
# This is one part of the list.
# B1: PhoQ; a variant is named by its letters at X, in order, P23837 (parent)
# chain: MKKLLRLFFPLSLRVRFLLATAAVVLVLSLAYGMVALIGYSVSFDKTTFRLLRGESNLFYTLAKWENNKLHVELPENIDKQSPTMTLIYDENGQLLWAQRDVPWLMKMIQPDWLKSNGFHEIEADVNDTSLLLSGDHSIQQQLQEVREDDDDAEMTHSVAVNVYPATSRMPKLTIVVVDTIPVELKSSYMVWSWFIYVLSANLLLVIPLLWVAAWWSLRPIEALAKEVRELEEHNRELLNPATTRELTSLVRNLNRLLKSERERYDKYRTTLTDLTHSLKTPLXXLQXXLRSLRSEKMSVSDAEPVMLEQISRISQQIGYYLHRASMRGGTLLSRELHPVAPLLDNLTSALNKVYQRKGVNISLDISPEISFVGEQNDFVEVMGNVLDNACKYCLEFVEISARQTDEHLYIVVEDDGPGIPLSKREVIFDRGQRVDTLRPGQGVGLAVAREITEQYEGKIVAGESMLGGARMEVIFGRQHSAPKDE
# Variants of: B1
# Test: enrichment ratio after two sorts for PhoP signalling (ratio (wild type AVST 3.29)); higher = more functional
# Conditions: with PhoP (E. coli)
row,Variant,enrichment ratio
1,PEIS,≤ 0.25
2,KQCC,≤ 0.25
3,LACG,≤ 0.25
4,INKG,≤ 0.25
5,HKRQ,≤ 0.25
6,DANL,≤ 0.25
7,PPRE,≤ 0.25
8,PHDC,≤ 0.25
9,KDHF,≤ 0.25
10,HFPE,≤ 0.25
11,PKMY,≤ 0.25
12,DSKE,≤ 0.25
13,PLNQ,≤ 0.25
14,DYEE,≤ 0.25
15,QSAP,≤ 0.25
16,GAYW,≤ 0.25
17,RNSY,0.443
18,LPIY,≤ 0.25
19,LVFA,≤ 0.25
20,NPFV,≤ 0.25
21,VYVV,≤ 0.25
22,AKML,9.72
23,QEHI,0.893
24,WRGK,≤ 0.25

row,Variant,enrichment ratio
1,HRQF,≤ 0.25
2,WVYA,≤ 0.25
3,LFDS,≤ 0.25
4,FYHA,≤ 0.25
5,IVAF,≤ 0.25
6,TPGH,≤ 0.25
7,SPCM,≤ 0.25
8,IPCK,≤ 0.25
9,GHVN,≤ 0.25
10,TQLN,13.2
11,HHVG,≤ 0.25
12,SCVS,3.13
13,LQTN,≤ 0.25
14,VDDM,≤ 0.25
15,LNPV,≤ 0.25
16,FAQP,≤ 0.25
17,YHKR,≤ 0.25
18,KICH,≤ 0.25
19,FHDY,≤ 0.25
20,QMVA,≤ 0.25
21,WENR,≤ 0.25
22,LYKI,≤ 0.25
23,RWKV,≤ 0.25
24,SYQE,≤ 0.25

row,Variant,enrichment ratio
1,ATQM,0.38
2,LWCT,≤ 0.25
3,VLSV,≤ 0.25
4,DPGN,≤ 0.25
5,AIIT,9.24
6,AEPY,≤ 0.25
7,RMCD,≤ 0.25
8,ESEA,≤ 0.25
9,CCFG,≤ 0.25
10,NTGS,≤ 0.25
11,VHIC,≤ 0.25
12,VCSW,≤ 0.25
13,LPYI,≤ 0.25
14,WARI,≤ 0.25
15,ISEK,≤ 0.25
16,MTFA,≤ 0.25
17,QTGF,10.1
18,MCCG,≤ 0.25
19,RHMN,≤ 0.25
20,TGKR,≤ 0.25
21,MCPK,≤ 0.25
22,PEDM,≤ 0.25
23,LKSW,≤ 0.25
24,LYEP,≤ 0.25

row,Variant,enrichment ratio
1,YIYC,≤ 0.25
2,AEGI,0.618
3,DPEI,≤ 0.25
4,YAVC,≤ 0.25
5,ISAQ,≤ 0.25
6,PLKV,≤ 0.25
7,QAFF,≤ 0.25
8,YPCN,≤ 0.25
9,IHAF,≤ 0.25
10,AEHS,≤ 0.25
11,IWFA,≤ 0.25
12,KNMS,≤ 0.25
13,LFGW,≤ 0.25
14,IWMT,≤ 0.25
15,YWQL,≤ 0.25
16,MTRC,≤ 0.25
17,SLLH,0.966
18,QFPI,≤ 0.25
19,SEQD,≤ 0.25
20,KAFP,≤ 0.25
21,YREI,≤ 0.25
22,YSAS,≤ 0.25
23,DSCI,≤ 0.25
24,RSLV,≤ 0.25

row,Variant,enrichment ratio
1,KLVR,≤ 0.25
2,DLQM,≤ 0.25
3,YIQR,≤ 0.25
4,PCNR,≤ 0.25
5,RSCH,≤ 0.25
6,IHRL,≤ 0.25
7,TDIR,≤ 0.25
8,MPDK,≤ 0.25
9,HKLY,≤ 0.25
10,KLPD,≤ 0.25
11,GTSI,2.4
12,MVPF,≤ 0.25
13,GLEE,≤ 0.25
14,FDSA,≤ 0.25
15,DGAV,≤ 0.25
16,LMCE,≤ 0.25
17,IYIC,≤ 0.25
18,ERER,≤ 0.25
19,YDWS,≤ 0.25
20,LHRT,≤ 0.25
21,ENMN,≤ 0.25
22,SIAG,11
23,GHQL,0.412
24,ATNM,≤ 0.25

row,Variant,enrichment ratio
1,MAMY,1.42
2,VTGE,≤ 0.25
3,PCTN,≤ 0.25
4,RMLE,≤ 0.25
5,LSTR,≤ 0.25
6,SAVD,≤ 0.25
7,FVKG,≤ 0.25
8,TCEN,0.333
9,TRTF,≤ 0.25
10,NMAA,≤ 0.25
11,TKGF,≤ 0.25
12,RGTP,≤ 0.25
13,FIVL,2.42
14,YKCE,≤ 0.25
15,LHVF,≤ 0.25
16,PEWL,≤ 0.25
17,PEPG,≤ 0.25
18,SLGT,≤ 0.25
19,DCSR,≤ 0.25
20,IHPT,≤ 0.25
21,HKIS,≤ 0.25
22,DYKW,≤ 0.25
23,ALRH,≤ 0.25
24,IKMI,≤ 0.25

row,Variant,enrichment ratio
1,YDDM,≤ 0.25
2,WSAC,≤ 0.25
3,EHHL,≤ 0.25
4,EVGG,≤ 0.25
5,GHSF,≤ 0.25
6,WSMQ,≤ 0.25
7,WTAF,≤ 0.25
8,MQRC,≤ 0.25
9,GENI,≤ 0.25
10,WICL,≤ 0.25
11,MHQP,≤ 0.25
12,HGAV,≤ 0.25
13,NALG,0.397
14,HYCV,≤ 0.25
15,VCWG,≤ 0.25
16,EKTM,≤ 0.25
17,WHWR,≤ 0.25
18,YDEF,≤ 0.25
19,LQPR,≤ 0.25
20,NLVC,≤ 0.25
21,TTVF,≤ 0.25
22,PYPK,≤ 0.25
23,SYST,0.257
24,VSEW,≤ 0.25

row,Variant,enrichment ratio
1,REWA,≤ 0.25
2,KVIH,≤ 0.25
3,QYKK,≤ 0.25
4,EWLY,≤ 0.25
5,LWHF,≤ 0.25
6,WYVS,≤ 0.25
7,HAKF,≤ 0.25
8,LLAW,≤ 0.25
9,KAAD,≤ 0.25
10,SVTD,≤ 0.25
11,QRFK,≤ 0.25
12,PWLG,≤ 0.25
13,SGQA,≤ 0.25
14,ICPT,≤ 0.25
15,EQTG,≤ 0.25
16,LMQR,≤ 0.25
17,YNKS,≤ 0.25
18,IITY,≤ 0.25
19,NYNI,≤ 0.25
20,PTGG,≤ 0.25
21,ILVD,≤ 0.25
22,DYYE,≤ 0.25
23,FCKY,≤ 0.25
24,GNHF,≤ 0.25

row,Variant,enrichment ratio
1,CIYA,≤ 0.25
2,TDKD,≤ 0.25
3,KSAF,≤ 0.25
4,EDDH,≤ 0.25
5,DVMW,≤ 0.25
6,IWKN,≤ 0.25
7,FWHL,≤ 0.25
8,KLWM,≤ 0.25
9,SHRL,≤ 0.25
10,IDTI,≤ 0.25
11,EDRD,≤ 0.25
12,MKMH,≤ 0.25
13,FIIV,≤ 0.25
14,GCWP,≤ 0.25
15,AYDD,≤ 0.25
16,NYWN,≤ 0.25
17,HPGN,≤ 0.25
18,FNQG,≤ 0.25
19,WYCY,≤ 0.25
20,HKCM,≤ 0.25
21,VKVW,≤ 0.25
22,SSPI,7.09
23,YRFY,≤ 0.25
24,ANCY,10.9

row,Variant,enrichment ratio
1,SYLT,≤ 0.25
2,RLVA,≤ 0.25
3,ITKH,≤ 0.25
4,VIIE,≤ 0.25
5,HLKM,≤ 0.25
6,QRPT,≤ 0.25
7,KVVK,≤ 0.25
8,RHPI,≤ 0.25
9,RGFW,≤ 0.25
10,IHLW,≤ 0.25
11,IPFH,≤ 0.25
12,NSEL,≤ 0.25
13,NGII,≤ 0.25
14,DING,≤ 0.25
15,PGLA,≤ 0.25
16,AIGE,10.6
17,QIFL,≤ 0.25
18,RMSG,≤ 0.25
19,RNNF,0.545
20,GDGF,≤ 0.25
21,FIFC,≤ 0.25
22,SKPY,≤ 0.25
23,HHAN,≤ 0.25
24,FGKG,≤ 0.25

row,Variant,enrichment ratio
1,PGPM,≤ 0.25
2,GNIC,2.72
3,LIQT,≤ 0.25
4,WKPC,≤ 0.25
5,FLNN,≤ 0.25
6,SCID,≤ 0.25
7,PSSS,≤ 0.25
8,RTHW,≤ 0.25
9,PYLC,≤ 0.25
10,LAHQ,≤ 0.25
11,AVVL,0.918
12,GCFE,≤ 0.25
13,QNPQ,≤ 0.25
14,LTQL,≤ 0.25
15,YKTD,≤ 0.25
16,MCMR,≤ 0.25
17,SSHD,≤ 0.25
18,FLQC,≤ 0.25
19,ITTQ,≤ 0.25
20,ASGS,3.2
21,NTYG,≤ 0.25
22,SDFS,≤ 0.25
23,PLMF,≤ 0.25
24,TWFL,≤ 0.25

row,Variant,enrichment ratio
1,HFIP,≤ 0.25
2,YWNG,≤ 0.25
3,LFIA,≤ 0.25
4,EWRV,≤ 0.25
5,YVRS,≤ 0.25
6,FSCW,≤ 0.25
7,KMFH,≤ 0.25
8,PCGA,≤ 0.25
9,YYNQ,≤ 0.25
10,SISD,1.93
11,QTEL,≤ 0.25
12,NNHN,≤ 0.25
13,SCPK,≤ 0.25
14,YWIP,≤ 0.25
15,SNPQ,≤ 0.25
16,AYSP,≤ 0.25
17,KYMS,≤ 0.25
18,APGP,≤ 0.25
19,WHVV,≤ 0.25
20,DGMT,≤ 0.25
21,EFWQ,≤ 0.25
22,DHSP,≤ 0.25
23,EMKE,≤ 0.25
24,VMTQ,≤ 0.25

row,Variant,enrichment ratio
1,RGEY,≤ 0.25
2,WVPV,≤ 0.25
3,FMQV,≤ 0.25
4,AERL,≤ 0.25
5,GFLC,0.939
6,PHLA,≤ 0.25
7,FCRI,≤ 0.25
8,EHPS,≤ 0.25
9,EKFQ,≤ 0.25
10,MMAF,13
11,SQVG,9.71
12,NVHH,≤ 0.25
13,PRVD,≤ 0.25
14,DYYT,≤ 0.25
15,RKSC,≤ 0.25
16,RDPG,≤ 0.25
17,PGCI,≤ 0.25
18,SAML,16.5
